Assay results as given in the supplement of paper PMC10126150.
Values marked as one replicate rest on one cluster of the flow cell; about a third of the high ones do not repeat.

Test system: ATP
Test: switch fluorescence ratio, 500 uM ATP over buffer (Cy3 cluster intensity, sum of 5 cycles each) (fold (ratio)); higher = stronger signal-on switching upon ATP binding; sequences stand for … in TCGTCGGCAGCGTCAGATGTGTATAAGAGACAGTTTTTTTTTTTTTTTTTTTTTTTTT…TC
Settings: aptamer strand: ATP DNA aptamer (quencher-CACCTGGGGGAGTATTGCGGAGGAAGG + anchor), 100 nM annealed; ATP concentration: 500 uM; one replicate
Outline: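 Imaging in selection buffer was followed by imaging after 15 min with 500 uM ATP at 22 °C, for Cy3-labelled switching-strand clusters annealed to 100 nM quencher-labelled ATP aptamer on a modified Illumina MiSeq flow-cell. Five of these buffer/ATP cycles ran, separated by NaOH stripping and re-annealing. The fluorescence ratio per cluster is summed target-cycle over summed buffer-cycle Cy3 intensity, averaged per switch-domain sequence; clusters outside 100-1000 RFU were removed.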
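Further: ATP exposure 15 min at 22 °C before imaging.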

| Sequence | switch fluorescence ratio |
| --- | --- |
| GTACCATCTC | 0.995 |
| GTACCCGAAA | 1.56 |
| GTACCCGGGG | 1.02 |
| GTACCCTTTG | 1 |
| GTACGAATTT | 1.03 |
| GTACGCCTTC | 1.06 |
| GTACGGATGA | 1.07 |
| GTACGGCATC | 1.14 |
| GTACTGATGG | 1.06 |
| GTACTTATGG | 1.01 |
| GTAGAAGGTG | 1.35 |
| GTAGATGGGC | 1.02 |
| GTAGATTATA | 0.975 |
| GTAGATTTCA | 0.973 |
| GTAGCAACGT | 1.2 |
| GTAGCCAGGT | 1.13 |
| GTAGCGATGT | 1.95 |
| GTAGCTAGAA | 1.33 |
| GTAGCTGAAG | 1.04 |
| GTAGCTTGTT | 0.99 |
| GTAGGACAGG | 0.999 |
| GTAGGACCGG | 0.979 |
| GTAGGAGAAC | 0.997 |
| GTAGGCTAGC | 1.03 |
| GTAGGGCCCC | 0.977 |

| Sequence | switch fluorescence ratio |
| --- | --- |
| GTAGGGCCGC | 0.995 |
| GTAGGTAGGA | 0.966 |
| GTAGGTCCCT | 1.01 |
| GTAGGTGATG | 1.02 |
| GTAGGTTAAT | 0.999 |
| GTAGTGGACC | 0.986 |
| GTAGTTCCCT | 1.02 |
| GTAGTTTTTA | 0.988 |
| GTATAAAAAC | 1 |
| GTATAATGAG | 0.967 |
| GTATAGAGTC | 0.978 |
| GTATATAGTG | 1.01 |
| GTATATGAAT | 0.992 |
| GTATATGCGG | 0.998 |
| GTATCTAGTG | 0.945 |
| GTATGACGGT | 1 |
| GTATGAGACG | 0.973 |
| GTATGAGCGT | 0.989 |
| GTATGATGTT | 0.989 |
| GTATGCACA | 1.02 |
| GTATGGTCAG | 0.964 |
| GTATGTCTAC | 1.01 |
| GTATGTTGGT | 0.945 |
| GTATGTTTGG | 0.974 |
| GTATTAAATT | 0.987 |

| Sequence | switch fluorescence ratio |
| --- | --- |
| GTATTAACCG | 0.994 |
| GTATTAAGCA | 1.02 |
| GTATTAATTC | 0.949 |
| GTATTACGCC | 1.02 |
| GTATTAGAGC | 0.934 |
| GTATTAGGGA | 1.03 |
| GTATTAGTTC | 0.958 |
| GTATTATAGC | 0.938 |
| GTATTCAGCT | 0.985 |
| GTATTCATTA | 1.02 |
| GTATTCGGGG | 0.974 |
| GTATTGAGTT | 0.999 |
| GTATTGGGAA | 1.03 |
| GTATTGGGTC | 1.03 |
| GTATTGGTCC | 0.988 |
| GTATTGTCTA | 0.986 |
| GTATTGTGAC | 0.983 |
| GTATTTACGG | 1.03 |
| GTATTTATTT | 0.98 |
| GTATTTGTAG | 1.02 |
| GTATTTGTTT | 1.04 |
| GTATTTTATC | 0.941 |
| GTCAAAAAAA | 0.971 |
| GTCAAAGGGG | 0.956 |
| GTCAAAGTTC | 1.02 |

| Sequence | switch fluorescence ratio |
| --- | --- |
| GTCAACCTAT | 1.04 |
| GTCAATACCG | 1.08 |
| GTCACAGCGG | 1.03 |
| GTCACATATT | 1.01 |
| GTCACTGCTT | 1.09 |
| GTCAGAGTGC | 1.03 |
| GTCAGCACCC | 1.08 |
| GTCAGCCTTG | 0.963 |
| GTCAGGATCA | 0.995 |
| GTCAGGGGCA | 1.01 |
| GTCAGGTCGG | 1.06 |
| GTCAGTTCAG | 1.02 |
| GTCATCGCTG | 0.993 |
| GTCATTATTC | 0.94 |
| GTCATTGAAT | 0.928 |
| GTCCAATTGT | 0.978 |
| GTCCCAATGG | 1.56 |
| GTCCCCGTCG | 0.962 |
| GTCCCGGG | 1.02 |
| GTCCGAAAGT | 1.02 |
| GTCCGTCGCG | 1.06 |
| GTCCGTGGCC | 1.05 |
| GTCCGTTTCT | 0.963 |
| GTCCGTTTTA | 0.984 |
| GTCCTCACAT | 1.06 |

| Sequence | switch fluorescence ratio |
| --- | --- |
| GTCCTCCTTT | 1.03 |
| GTCCTCGATG | 1.02 |
| GTCCTGAT | 0.965 |
| GTCGAAATGG | 1.14 |
| GTCGAACGGG | 1.05 |
| GTCGAATGCT | 1.04 |
| GTCGAGAAAG | 0.946 |
| GTCGAGCGGG | 1.04 |
| GTCGAGGATC | 1.01 |
| GTCGATTGCA | 1.04 |
| GTCGCACCTA | 1.04 |
| GTCGCGCTAT | 1.03 |
| GTCGCGTTAC | 2.69 |
| GTCGCTAAGA | 0.97 |
| GTCGCTCCAC | 1.09 |
| GTCGCTCTGT | 0.998 |
| GTCGCTTGGG | 1.01 |
| GTCGGAAGTA | 1.01 |
| GTCGGACGTG | 1.05 |
| GTCGGAGCTA | 1.39 |
| GTCGGCGAGG | 0.969 |
| GTCGGCGTGC | 1.05 |
| GTCGGGACAG | 1.01 |
| GTCGGGAGCA | 1.03 |
| GTCGGTACAT | 1.03 |

| Sequence | switch fluorescence ratio |
| --- | --- |
| GTCGGTCTCG | 0.949 |
| GTCGGTGCTG | 0.987 |
| GTCGGTGGTA | 1.04 |
| GTCGTAAATC | 1.09 |
| GTCGTCGGCT | 1.01 |
| GTCGTCTGCC | 1.01 |
| GTCGTTGGCT | 1.01 |
| GTCTAACCGG | 1.03 |
| GTCTAAGTAA | 1.03 |
| GTCTACTAGA | 1.01 |
| GTCTACTTGC | 1.03 |
| GTCTATGACT | 0.998 |
| GTCTATTCAG | 0.999 |
| GTCTCGGACC | 0.976 |
| GTCTCTGGG | 1 |
| GTCTGAATTT | 0.994 |
| GTCTGACCAG | 1.05 |
| GTCTGGAATA | 1.27 |
| GTCTGTAACA | 1.01 |
| GTCTGTAAG | 0.993 |
| GTCTGTAAGT | 1 |
| GTCTGTAGTG | 0.968 |
| GTCTGTGTTT | 0.978 |
| GTCTGTTGGG | 0.959 |
| GTCTTAATTG | 1.04 |

| Sequence | switch fluorescence ratio |
| --- | --- |
| GTCTTCCATA | 0.963 |
| GTCTTGGGGT | 0.977 |
| GTCTTTGTTG | 0.974 |
| GTCTTTTAAT | 0.954 |
| GTCTTTTTGA | 0.982 |
| GTGAAAATGT | 1.02 |
| GTGAAATT | 0.997 |
| GTGAACATAA | 1.04 |
| GTGAAGAATT | 0.976 |
| GTGAAGAG | 0.951 |
| GTGAAGGTCA | 1.02 |
| GTGAAGTTCC | 1.08 |
| GTGAATTCGT | 0.946 |
| GTGACATG | 0.928 |
| GTGACGCTGA | 1.14 |
| GTGACGGCCG | 1.07 |
| GTGACTAAAC | 1.01 |
| GTGACTACGA | 1 |
| GTGACTCTCA | 0.99 |
| GTGAGCAGCA | 1.03 |
| GTGAGCCCTT | 1.01 |
| GTGAGCTTAG | 1.05 |
| GTGAGGTGTC | 0.978 |
| GTGAGGTTCG | 1.01 |
| GTGAGTCCCC | 0.943 |

| Sequence | switch fluorescence ratio |
| --- | --- |
| GTGAGTCCGG | 0.99 |
| GTGAGTGGGC | 0.976 |
| GTGAGTGTGC | 0.902 |
| GTGAGTTCGG | 1.04 |
| GTGATAACCT | 1.43 |
| GTGATAGATA | 0.986 |
| GTGATAGGAG | 1.02 |
| GTGATGCTAT | 1.02 |
| GTGATGTATG | 0.97 |
| GTGATTAATG | 1.01 |
| GTGATTACTT | 1 |
| GTGCAAAGAC | 1.95 |
| GTGCAAAGCA | 0.994 |
| GTGCAAATTC | 1.06 |
| GTGCAACGGA | 0.99 |
| GTGCACTCCG | 1.18 |
| GTGCAGAGTT | 1.02 |
| GTGCAGTATG | 0.99 |
| GTGCAGTTCG | 0.978 |
| GTGCATCTCC | 1.29 |
| GTGCATTAT | 1.01 |
| GTGCCCACTT | 0.993 |
| GTGCCCCATA | 1.07 |
| GTGCCTATTG | 1.03 |
| GTGCCTGGAG | 1 |
